According to PMC6212790:
This is one part of the list. At the low end of the ranking the order means little.

target: T1, GST-Rok (full length) (UniProt O34857); assay: protein binding microarray; conditions: Rok is a gene silencer of Bacillus subtilis; high values mean tight binding; most listed sequences are background and not binding sites; double strand, one strand shown;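 note: rank score from −0.5 (least bound) to 0.5 (best bound)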
T1 sequence: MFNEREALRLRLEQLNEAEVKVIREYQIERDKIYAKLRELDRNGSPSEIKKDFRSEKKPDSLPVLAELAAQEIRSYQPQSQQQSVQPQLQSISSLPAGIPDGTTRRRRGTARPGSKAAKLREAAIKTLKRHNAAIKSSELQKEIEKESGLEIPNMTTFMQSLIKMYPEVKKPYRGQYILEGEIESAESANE

Sequence | binding signal [E-score]
ATATTCAA | 0.199
GCCTAGTA | 0.0849
AGGTGAAC | -0.0811
GACGTCAC | -0.144
AGGTCGCA | -0.234
AGCTGCAA | -0.0171
CCTGGCCC | -0.172
CACTTCAG | -0.0539
AGAGCTCG | -0.14
ATGTACTC | 0.209
GATTGCCC | -0.238
AGCGGTTA | -0.138
CGGTGAAG | -0.168
ACTTTGCG | 0.202
GAAAGCCC | -0.268
AAAATTCC | -0.0798
GATAAGCC | -0.213
CCTAACCA | -0.243
GAGCAGGA | -0.33
CCTGTCTC | -0.264
GGCCGCCC | -0.365
ATGATAAA | 0.24
TATTGCGA | 0.172
GGATTCCC | -0.187
AGGGTACA | -0.132

Sequence | binding signal [E-score]
AGCGGATC | -0.112
CATCATGA | 0.125
AGTTTACC | 0.22
GGACATGA | -0.24
GATTGGGA | -0.296
TACTGTGA | 0.167
ACTACTCG | 0.187
GTTCCGGA | -0.141
GTTCGGAA | -0.0385
GCCGAGGC | -0.19
AATCCCTG | -0.089
GCGGCACC | -0.235
ATAAAAGC | 0.0546
AGCGCTAA | 0.0455
GACTGTGC | -0.12
CCTACTCC | -0.13
GACGGTCC | -0.264
AGGCGTGG | -0.162
TAGGCTAA | -0.112
CGGATCGA | -0.0589
ATGGTGGC | -0.127
GTACACAC | -0.0444
GTCGAGTA | 0.087
ATGTCGGA | 0.0398
CGCTATAC | -0.0281

Sequence | binding signal [E-score]
CAAGGTCG | -0.126
CTTGATGC | -0.158
TCGGTGCA | -0.0568
ATACATAG | 0.391
AAATGGTC | 0.025
CACCCCTG | -0.28
CACGGCGC | -0.218
AATTTCTA | 0.344
CAAACGAG | -0.0893
TGCCGGCA | -0.254
ACAATGTA | 0.275
CACTTACC | -0.0246
ATGGCGCA | -0.117
ATTTTGTA | 0.232
CAGGTTCA | -0.104
CAGATCGC | -0.176
AAAGGACT | -0.179
CGGCTGAC | -0.0945
CGCATTCC | -0.192
CACGTATA | 0.243
AGTAAGTA | 0.262
CCAGCCCA | -0.331
ACGCACTA | 0.204
AGCACCGG | -0.275
CTGATATA | 0.204

Sequence | binding signal [E-score]
AAGTCCAA | -0.111
ATCGGAGG | -0.368
CTCAGCCA | -0.183
CCTAGACG | -0.169
ACAATCGT | 0.0173
CTGCCATC | -0.285
CGACGTCA | -0.0313
GGAGAAAC | 0.0274
GTAGACAA | -0.0127
GGACACGA | -0.177
AAACCCTT | -0.153
CGAGTAAA | 0.0537
CGGTGCCA | -0.362
GTCGATTA | 0.139
ATATCGTC | 0.182
CTTCCGGA | -0.156
CACAGCCG | -0.136
CAAGTTTA | 0.00675
GTTAAAGA | -0.0952
CATCCCAA | -0.0485
CGTAACAA | 0.0434
CATCAGTC | -0.00175
TCTCAAGA | -0.138
CAGTGACC | -0.197
AACTCTAC | 0.249

Sequence | binding signal [E-score]
ACATTACC | 0.168
AATAACAC | 0.18
AGGACTAC | -0.0384
CAAAATCA | 0.118
ATTACGGA | 0.176
CCACGTGG | -0.121
ATTATACC | 0.269
ATTAGCCG | -0.0406
GAGGCTCA | -0.246
ATGCGCTC | -0.0342
ATAGTCGG | 0.0693
CCACCTAG | -0.146
GAAACATA | 0.277
CTAAATCC | 0.151
CCATTACC | 0.177
CTGTTTTA | 0.142
GTTAGGCA | -0.0231
CACAGAGC | -0.126
AGGAGAAA | 0.0433
CTGTTAAA | 0.04
GAGCGAGC | -0.23
CATTACCG | 0.00887
TATACTCA | 0.267
ATTCTTTC | 0.0013
CGCACTAC | -0.0229

Sequence | binding signal [E-score]
GACAATAC | 0.0702
ATCATCTA | 0.196
GGGCCGCA | -0.366
GACGCCGC | -0.157
AACTTTCG | -0.0406
AAGAACAG | -0.257
ACCGAGCA | -0.0882
GGAGGACA | -0.304
CGAATTAG | 0.307
ACGTACTG | 0.146
AGGTATGA | 0.249
GACTCCGA | -0.151
ATATTCGA | 0.331
GTCCACAC | -0.0314
ATAGAGGG | -0.235
AGTACCAG | 0.0256
TCTTCGAA | -0.0648
AAGTGTAG | 0.179
GGTCTGTA | -0.0472
GTAGGTCA | 0.101
GCTACGCC | -0.283
CCGTAGAC | -0.216
ATGCAAGA | 0.0382
CAATTTCG | 0.0559
ACCATGCT | -0.182

Sequence | binding signal [E-score]
TAGGTTCA | 0.128
ACAACTGC | 0.0893
CCGTTTAC | -0.126
AATCCTGT | 0.155
CGAGGTAA | 0.0494
AACGCCCT | -0.11
TGCTCACA | -0.000811
CCGAGCGC | -0.325
CTGGTAAG | 0.00927
AGCATTCA | 0.15
AACCTCGA | 0.11
CCCTCTCG | -0.252
GGCTAACA | -0.00248
ATCACCCC | -0.297
ACGTACGG | 0.0672
CTGGAATA | 0.171
CGGATTAG | -0.0251
CTAGGGTA | 0.0773
CGCGTTAA | -0.151
GGCAGTGA | -0.379
ATGTGTAA | 0.25
GATTCAGC | -0.155
